In the supplement of paper PMC10126150:
Sequences with one replicate were seen in a single cluster, so their values are uncertain.

Tested on: ATP
Test: switch fluorescence ratio, 500 uM ATP over buffer (Cy3 cluster intensity, sum of 5 cycles each) (fold (ratio)); higher = stronger signal-on switching upon ATP binding; sequences stand for … in TCGTCGGCAGCGTCAGATGTGTATAAGAGACAGTTTTTTTTTTTTTTTTTTTTTTTTT…TC
Settings: aptamer strand: ATP DNA aptamer (quencher-CACCTGGGGGAGTATTGCGGAGGAAGG + anchor), 100 nM annealed; ATP concentration: 500 uM; one replicate
Outline: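 Between each of five buffer/ATP cycles, the flow-cell was stripped with NaOH and re-annealed. Each cycle imaged Cy3-labelled switching-strand clusters, annealed to 100 nM quencher-labelled ATP aptamer on a modified Illumina MiSeq flow-cell, first in selection buffer and then after 15 min with 500 uM ATP at 22 °C. The fluorescence ratio is summed target-cycle over summed buffer-cycle Cy3 intensity per cluster, averaged per switch-domain sequence, with clusters outside 100-1000 RFU excluded.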
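Further: ATP exposure 15 min at 22 °C before imaging.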

Sequence | switch fluorescence ratio
CACCGACTAA | 1.12
CCGTCAGTT | 1.01
AGCATTCGGG | 1.06
ACTTTACCAG | 1.42
CGTAAGTCT | 1.02
ACTTAGGTTA | 1.06
TTTTTAATAA | 0.976
GTTTGAGTCC | 0.969
TCTTGTATCT | 0.975
CAATTGAG | 1.02
TCGACGGAAG | 1.02
TCGAAATAAT | 0.99
ACGCCGCTTG | 1.43
AAGGCCAGTT | 1
ATACACCATG | 1.09
GCCTTCAACG | 1.67
TCTTCTTCTG | 1.03
TTGCACGACG | 1.03
CCTAAGTGTG | 1.07
ATGCTCGGCC | 0.989
GGCCTAAAAT | 0.968
GTAATATAAT | 0.969
GCTGCTAGCG | 1.04
GAGCTTTCTT | 1.05
AGGATTGACG | 1.09
ACTGCCGCTG | 1.23

Sequence | switch fluorescence ratio
TTCATGAGCA | 1.02
ACATCGTAGC | 0.998
TGAATGTGCT | 0.969
TGGGTCACG | 0.978
TTTGCTTGTT | 1.04
TGTCGGTCCT | 1.01
GTATAAGGCC | 1
ATTTGGCTGA | 0.978
GCCGCGCCTG | 1.02
GTGACAAGTA | 1.04
CGTATATCGA | 0.983
TTTGCGGCGC | 1.01
ACATGGGTTC | 1
CAGGTCACA | 1.01
TCATCTTTGA | 1.02
TAACATTTCG | 0.991
TCTCCGAGCG | 1.52
AGGCTAATGC | 0.979
AGCATAGGTG | 1.29
TTGTGGGAGC | 0.97
GGGTCCGTAC | 1.05
TTTTCGGCCA | 0.994
CATATTAGG | 1
AAGTTCTTAT | 1.02
GTGTTACGT | 1.01
CCGTATGCCC | 1.02

Sequence | switch fluorescence ratio
GTGCAGGATG | 1.05
TCGTGAGCTT | 1.05
CGCTATCGCC | 1.42
AGTCGCATAG | 1.16
GATGTTGGAT | 0.993
TAGGGAACAC | 2.08
GCACGAAGAT | 1.03
GGACGTCATT | 1.06
GGAAGAAGGC | 1.02
AGTGTACAGT | 1.08
GGTAGCCATT | 0.962
AGGCCCAGCA | 1.01
TAGAAGTAAC | 0.992
GATGTTTAGA | 0.982
GTAACTTTTG | 1.03
GGGTCTGTTA | 1
TTGATCCCGG | 1.01
GGCCAATCCC | 1.07
GTCCTCTGAG | 1.02
TGAAGCGCAA | 4.7
GGGGGTAACA | 0.999
ATTTGTAGC | 0.93
CGTTGACGTT | 1.03
CTGAGCGCTT | 1.09
GACATCCGCA | 2.1
ACTATGGGA | 0.979

Sequence | switch fluorescence ratio
ACGAGTAAG | 0.987
CCATGGACTG | 1.02
AAGCCTTTTC | 1.06
TGGGCCAATG | 1.03
AGTCCTCCAG | 2.59
TGAAAGGGAC | 1.06
GACATTCACG | 1.29
TGTTTTTCAT | 1
CTTTCTGTCA | 1.02
ATGTTGTCCT | 1.01
AGGAGGTGTG | 1
TTGGAGTAAC | 1.02
TCACTTGGGG | 1.03
AGAAAATCGG | 0.99
AACGTATAGA | 1.07
GAGATTATAG | 0.998
ACTAGCGTAC | 2.4
TGACATAGAG | 0.99
TTTCCTCATT | 1.61
CGCAGTTGCT | 1.23
GTCCTGCCTA | 1.03
TAACTCGATA | 0.955
TTGACACAA | 1.16
TCAATGGAA | 1.04
AACAGAGGCC | 1.47
GGTTGGTACA | 0.979

Sequence | switch fluorescence ratio
CCCGCTCGGT | 1.05
GGTGGCAGCG | 1.02
AGCGGTGACG | 1.06
GCGGGAAGTG | 0.967
ACCACGGGGG | 3.98
TGACCCCAGC | 1.35
CGAATGTTAA | 0.979
TTCACTGGTA | 1.04
TGGAGACCCA | 0.999
AATTAGGCCG | 0.999
GTTAAA | 0.948
GTTCATTCGC | 1.53
AGACTTATTC | 1.04
TGAGCTACG | 1.07
GTTGGTCCG | 1.05
TTATGGGACG | 1.11
CGTGAATTCG | 0.991
TATTCGACTG | 0.858
GGAGCATAAA | 2.1
AATCCGTTGA | 1
ATCTTCCGGT | 1.12
ACGGACAATA | 1.48
CTGAGAGGTC | 1.01
AATCAACGTC | 1.01
GGTGAACGGG | 1.02
CACAGTTATT | 1.04

Sequence | switch fluorescence ratio
GAGCAAGTGT | 1.03
AGGCGACACG | 0.989
AGATAGGATG | 0.989
TGCTATGAAG | 1.03
AAATACGCAA | 6.77
CCGGAGTGCC | 1.04
CTAAACCGTA | 0.996
GATTGTAGCA | 0.974
TTCGCGCCCC | 5.4
CGGTGCAGCC | 0.985
TCAAAGAGTG | 0.917
CGGTTTTACC | 0.987
CAATCAGCTG | 1.01
GCACGTTGGG | 1.02
CCCCAAAGTG | 4.26
TTGAGAGACA | 0.985
AGATGCAGCC | 1.02
GGAGGGGCT | 1.13
CTGGGCAGTA | 1.11
GTTTTGACGG | 1.02
TGAGTCGACT | 1.07
GGGCATGGG | 0.971
AGATAAACGC | 0.987
CCTAGATTCA | 0.998
GAGCTCCATT | 1.02
AATTAGAAT | 0.992

Sequence | switch fluorescence ratio
TCAGATGGAT | 1.04
AGTAGGGGCT | 1.06
TTTAAAAATG | 1.03
AAGTCTCACG | 1.03
TCAAGCGAGA | 0.984
TCGCCGCCCA | 1.21
TCTCGCTATG | 1.11
GAACTATTAT | 1.01
GATTACCGAT | 1.04
GGCTTAAGA | 0.971
GTTGTTCCTC | 1.08
CGATTAAGAC | 1.14
TGGCCCTGA | 1.01
ATTCGGCCAG | 1.01
CTGGCGGGCG | 1.07
TTGGGTTATA | 0.976
GTAACTTTTA | 0.986
TGACTCCATA | 1.08
AAGGAAACGA | 1.06
CGGTTATTGC | 1.01
TTCGTTGTTA | 0.976
TTAACAACTT | 1.03
TCTCAACCGT | 1.35
TGAGTAAGAG | 1
TAGGACTAAA | 1.06
CATAGCTTTG | 0.98

Sequence | switch fluorescence ratio
TCAGCAGCTG | 1.01
ACTGTAGGTT | 1.05
GATCCCGGCG | 1.06
AAAGTACGTT | 1.13
CAAGGTCTTT | 1.03
GATACTGAAT | 1.04
TATACTGACA | 1.16
CTGGATGTAA | 0.982
GGTTCGGAGT | 0.977
TCTGTCTTTG | 0.986
ACTGGGATAT | 1.04
GGACTGGACT | 1.01
GATGTGACTT | 1.02
GTCGTGGATG | 0.99
TACCACGCTG | 1.12
GTTTTGGGGC | 0.991
TGTCGTCTTA | 1.02
CTTTAATTAA | 1.02
GTTTCAGATT | 0.995
